Out of some 310,000 compounds screened, about 14,000 (4.5%) showed an effect of 50% or more. The effect is printed as a negative number. This is one part of the list.
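Also: peak tail current of the secondary pulse compared with the same well before compound.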

The target of this test is human ether-à-go-go-related gene (hERG) potassium channel (human, UniProt Q12809). As to the kind of experiment: primary screen, population patch clamp on CHO cells stably expressing hERG.
Sequence of human ether-à-go-go-related gene (hERG) potassium channel (Q12809 whole entry, looked up): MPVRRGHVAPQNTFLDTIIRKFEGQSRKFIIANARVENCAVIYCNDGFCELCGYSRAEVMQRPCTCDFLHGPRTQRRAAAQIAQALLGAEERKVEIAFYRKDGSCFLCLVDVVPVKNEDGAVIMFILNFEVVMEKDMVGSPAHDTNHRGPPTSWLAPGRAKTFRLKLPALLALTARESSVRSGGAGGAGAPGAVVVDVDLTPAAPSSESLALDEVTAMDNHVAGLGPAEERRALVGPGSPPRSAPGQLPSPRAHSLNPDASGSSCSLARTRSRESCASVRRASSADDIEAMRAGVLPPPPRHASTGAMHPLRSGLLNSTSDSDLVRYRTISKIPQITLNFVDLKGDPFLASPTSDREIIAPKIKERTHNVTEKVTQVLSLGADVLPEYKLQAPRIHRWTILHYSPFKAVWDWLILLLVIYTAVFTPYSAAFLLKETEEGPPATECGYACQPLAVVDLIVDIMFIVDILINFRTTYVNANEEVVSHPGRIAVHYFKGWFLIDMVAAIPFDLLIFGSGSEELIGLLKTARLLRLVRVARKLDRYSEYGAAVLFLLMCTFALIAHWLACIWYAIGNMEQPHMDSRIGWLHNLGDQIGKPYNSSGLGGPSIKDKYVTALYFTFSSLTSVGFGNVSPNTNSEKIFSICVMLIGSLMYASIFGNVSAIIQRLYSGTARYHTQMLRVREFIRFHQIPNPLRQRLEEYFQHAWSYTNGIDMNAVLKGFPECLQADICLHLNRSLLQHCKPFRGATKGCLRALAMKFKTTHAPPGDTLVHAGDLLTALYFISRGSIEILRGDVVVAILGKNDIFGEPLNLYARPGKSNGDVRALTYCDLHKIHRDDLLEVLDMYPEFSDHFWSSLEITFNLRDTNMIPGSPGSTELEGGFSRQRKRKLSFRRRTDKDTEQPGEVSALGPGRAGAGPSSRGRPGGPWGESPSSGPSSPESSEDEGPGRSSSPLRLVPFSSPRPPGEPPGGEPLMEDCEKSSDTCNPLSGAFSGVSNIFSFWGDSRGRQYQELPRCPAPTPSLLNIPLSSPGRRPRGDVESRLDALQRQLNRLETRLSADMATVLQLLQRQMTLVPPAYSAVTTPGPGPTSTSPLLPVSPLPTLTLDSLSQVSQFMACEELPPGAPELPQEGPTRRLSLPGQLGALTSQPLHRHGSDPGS
For the molecule `CCOc1nc2cnccc2n(CC(=O)Nc2ccc(C)c(C)c2)c1=O`, the “hERG current change (%, negative = inhibition) at 10uM” value is on record as 21.8%.
For `Cc1nc(-c2ccccc2)sc1-c1n[nH]c(=S)n1C`, the “hERG current change (%, negative = inhibition) at 10uM” value is 25.4%.
With `O=C1CN(C(=O)COC(=O)CNC(=O)c2ccccc2)c2ccccc2N1`, the “hERG current change (%, negative = inhibition) at 10uM” value turned out to be 7.58%.
Then `COc1cc(/C=C/C(=O)O)cc(OC)c1`, with 2.55%; and `Cc1ccc2c(CC(=O)NCc3cccs3)coc2c1`, with 5.8%.
In the case of `CNC(=O)c1c(NC(=O)C2=COCCO2)sc2c1CCC(C)C2` (centres unmarked), the “hERG current change (%, negative = inhibition) at 10uM” value is recorded as -15.1%.
The value for `O=C(CCS(=O)(=O)c1cccs1)Nc1ccc(C(=O)NCc2ccccc2)cc1` was 19%.
The value for `Cc1ccc(-c2n[nH]c(=O)c3ccccc23)cc1S(=O)(=O)N(C)CCO` was -6.43%; that for `N=c1c2ccccc2nnn1-c1cccc(C(F)(F)F)c1` was 7.6%; that for `O=c1[nH]snc1N1CCOCC1` was 14.8%.
Take `O=C(Nc1cccc(Cl)c1)Nc1nnc(-c2ccncc2)s1`: the “hERG current change (%, negative = inhibition) at 10uM” value is reported as -1.91%.
`CCOC(=O)[C@@H]1[C@H]2COc3cc(OC)ccc3[C@H]2N2C(=O)N(c3ccc(C)cc3)C(=O)[C@@]12C`: the “hERG current change (%, negative = inhibition) at 10uM” value turned out to be 2.35%.
Then `CCOC(=O)C1CCCN(Cc2cn(C)nc2-c2ccc3c(c2)OCCO3)C1` (centres unmarked), with -24.7%.
For the molecule `O=C(C[n+]1cc(-c2ccc(Cl)cc2)n2c1CCC2)Nc1nc(-c2ccccc2)cs1.[Cl-]`, the “hERG current change (%, negative = inhibition) at 10uM” value was -0.843%.
Take `C/C(=C\c1ccc2c(c1)OCO2)C(=O)c1c(C)cc(C)[nH]c1=O`: the “hERG current change (%, negative = inhibition) at 10uM” value is 2.08%.
The value for `O=C(O)C1C2CCC(O2)C1C(=O)Nc1cccc(F)c1` (centres unmarked) was 8.09%; that for `Cc1nc(C)c(C(=O)C2=C(O)C(=O)N(CCN(C)C)C2c2ccco2)s1` (centres unmarked) was 6.65%.
Then `CN(C)Cc1c[nH]c2ccccc12`, with 17%; and `Cn1cnc([N+](=O)[O-])c1SCC(O)CN1CCCCC1` (centres unmarked), with 5.38%.
The value for `CC(C)(C)NC(=O)COc1ccc(S(=O)(=O)N2CCCC2)cc1` was 17.1%; that for `CCn1cc(-c2nnnn2-c2ccc(Cl)cc2)c(=O)c2ccccc21` was -58.8%.
With `Cc1ccc(C(=O)COC(=O)CCc2nc3ccccc3[nH]c2=O)cc1C`, the “hERG current change (%, negative = inhibition) at 10uM” value was 11.7%.
Then `COc1ccc(CN2CCC(C(=O)c3cccc(Cl)c3)CC2)cc1`, with -78.7%; and `CCOc1ccc2c(c1)C(C)=CC(C)(C)N2`, with 15.5%; and `Cc1ccc2nc(NC(=O)Cc3cccs3)sc2c1`, with -1.43%.
Consider `CCCCCC(=O)Nc1ccc(S(=O)(=O)Nc2nccc(C)n2)cc1`, for which the “hERG current change (%, negative = inhibition) at 10uM” value is reported as 22.9%.
Then `CC1(C)C(=O)Nc2ccccc2N1C(=O)COC(=O)COc1ccc(C#N)cc1`, with 8.82%.
Take `COc1ccc2c(c1)CC(=O)NC=C2`: the “hERG current change (%, negative = inhibition) at 10uM” value is recorded as 21.2%.
Take `Cc1ccc(-c2c(C(=O)N/N=C/c3ccc(OC(C)C)cc3)nnn2-c2nonc2N)cc1`: the “hERG current change (%, negative = inhibition) at 10uM” value is given as 7.64%.
Then `CCCN1Cc2cccc(C(=O)N3CCN(c4ccc(OC)cc4)CC3)c2C1=O`, with 3.41%; and `CCN1CCc2nc3ccccc3c(C(=O)Nc3ccc(NC(C)=O)cc3)c2C1`, with 10.2%; and `NC(=O)C1(c2ccccc2)CCOCC1`, with 16.3%.
As to `O=C(C1CCN(S(=O)(=O)c2ccc(F)cc2)CC1)N1CCOCC1`, the “hERG current change (%, negative = inhibition) at 10uM” value worked out at 15.3%.
Consider `COc1ccc(C(CCN2CCOCC2)c2c(OC)cc(OC)c3c(C)cc(=O)oc23)cc1` (centres unmarked), for which the “hERG current change (%, negative = inhibition) at 10uM” value was -69.2%.
For `COc1ccc(OC)c(N(C)S(=O)(=O)c2cc3c(cc2C)NC(=O)CO3)c1`, the “hERG current change (%, negative = inhibition) at 10uM” value is on record as -0.289%.
The value for `Cc1cc(OCC(=O)N2CCN(c3ncccn3)CC2)ccc1Cl` was -14.6%.
The value for `Cc1cc2cc(CNC(=O)c3ccc4c(c3)OCO4)ccc2[nH]1` was -1.85%; that for `CC(=O)Nc1ccc(C(=O)Nc2nnc(CCc3ccccc3)s2)cc1` was 10.7%; that for `O=C(Cc1ccccc1F)Nc1ccc(Cl)nc1` was 0.824%.
Then `CCN(CC)S(=O)(=O)c1cccc(NC(=O)CCNC(=O)c2ccc([N+](=O)[O-])cc2)c1`, with -62.4%.
`CCCOc1ccc(N2C(=O)CC(N(CCOC34CC5CC(CC(C5)C3)C4)C(C)=O)C2=O)cc1` (centres unmarked): the “hERG current change (%, negative = inhibition) at 10uM” value is -14.1%.
Consider `CCCC(=O)Nc1ccccc1NC(=O)CN(C)S(=O)(=O)c1ccc(C)cc1`, for which the “hERG current change (%, negative = inhibition) at 10uM” value is 0.281%.
Then `Cc1cnc(NC(=O)C2CCC(C(C)(C)C)CC2)s1` (centres unmarked), with 13.8%.
As for `CCn1c(SCC(=O)Nc2ccc3c(c2)OCCO3)nnc1C1CC1`, the “hERG current change (%, negative = inhibition) at 10uM” value worked out at 9.05%.
The value for `CC1=C(C/C(C)=C/c2ccccc2)/C(=C/CO)[C@@H]2OC(=O)O[C@]2(C)C12CC2` was 2.65%; that for `COc1cccc(OCc2cc(C(=O)N3CCC(C(O)C(C)C)CC3)no2)c1` (centres unmarked) was -16.1%.
The value for `CCc1nnc(NC(=O)C(=O)NCCOC(=O)c2ccccc2)s1` was 18.4%; that for `COC(=O)c1cn(C)c2ccc(S(=O)(=O)N3CC(C)CC(C)C3)cc2c1=O` (centres unmarked) was -5.76%; that for `CCCc1ccc(C(=O)CCC(=O)O)cc1` was -4.35%.
Turning to `Cc1ccc(C(=O)CNc2ccc(C)c(Cl)c2)cc1`, the “hERG current change (%, negative = inhibition) at 10uM” value is on record as 7.99%.
For the molecule `Clc1ccc(-n2nnc(-c3cccnc3Cl)n2)cc1Cl`, the “hERG current change (%, negative = inhibition) at 10uM” value is given as 21.2%.
`O=C(Nc1ccc(N2CCN(C(=O)c3ccc(Cl)cc3)CC2)cc1)c1ccc(Br)o1`: the “hERG current change (%, negative = inhibition) at 10uM” value is -75.3%.
The value for `Cc1oc(-c2ccccc2F)nc1CS(=O)(=O)CC(=O)NCCN(C)C1CCCCC1` was -25.6%; that for `CCn1cc(Cl)c(C(=O)NNC(=O)CCn2cc([N+](=O)[O-])cn2)n1` was 9.18%; that for `Cc1cc(C)n(CC2CC(=O)N(c3ccccc3)C2=O)n1` (centres unmarked) was 18.6%.
For the molecule `CC1CCC2(CC1)NC(=S)N(C(C)(C)C)N2` (centres unmarked), the “hERG current change (%, negative = inhibition) at 10uM” value is listed as 16.5%.
The value for `CC(=O)Nc1ccc(NC(=O)CCOc2ccccc2C)cc1` was 9.83%; that for `CC(=O)Nc1nnc(SCC(=O)NCc2ccc3c(c2)OCO3)s1` was 15.8%.
The value for `Cc1cc(=O)c(C(=O)O)nn1-c1ccc(Cl)cc1` was 26.6%.
As to `Cc1cc(C#Cc2c(-c3ccccc3)n(C)c3ccccc23)ccc1F`, the “hERG current change (%, negative = inhibition) at 10uM” value is listed as -11.1%.
Regarding `COc1cc(NC(=S)NCCc2ccc(S(N)(=O)=O)cc2)c(OC)cc1Cl`, the “hERG current change (%, negative = inhibition) at 10uM” value is 8.68%.
Take `Cc1c(Cl)cnc(NC(=O)COC(=O)c2ccc(S(=O)(=O)NCc3ccco3)cc2)c1Cl`: the “hERG current change (%, negative = inhibition) at 10uM” value was -13.8%.
Take `CCN1CCN(c2ccc(S(=O)(=O)N3CCCCC3)cc2NC(=O)c2cc3ccccc3o2)CC1`: the “hERG current change (%, negative = inhibition) at 10uM” value is listed as -53.7%.
For `CC(=O)c1cn(CC(=O)Nc2ccccc2Cl)c2ccccc12`, the “hERG current change (%, negative = inhibition) at 10uM” value is 14.2%.
On to `COc1ccc(S(=O)(=O)N2CCC3(CC2)OCCN3S(=O)(=O)c2ccccc2)cc1OC`, for which the “hERG current change (%, negative = inhibition) at 10uM” value worked out at 0.907%.
Then `Cc1cc(C(=O)COC(=O)c2ccc(Br)o2)c(C)n1Cc1ccco1`, with 9.95%; and `CCN(CC)S(=O)(=O)c1ccc(O)c(NC(=O)CN2CCc3ccccc3C2)c1`, with 22.3%; and `CCOC(=O)C(O)(c1ccc(NC(=O)c2ccco2)c(OC)c1)C(F)(F)F` (centres unmarked), with -14.6%.
Then `CCOC(=O)CN1C(=O)C(O)=C(C(C)=O)C1c1ccc([N+](=O)[O-])cc1` (centres unmarked), with -10.3%; and `CN(C)CCNC(=O)c1cccc(NS(=O)(=O)c2ccc(Cl)c(Cl)c2)c1`, with 0.919%.
On to `COc1ccc(N2CCN(C(=O)c3cc4c(s3)-c3ccccc3OC4)CC2)cc1`, for which the “hERG current change (%, negative = inhibition) at 10uM” value is 16.5%.
The value for `Cn1c(=O)n(CC(=O)OCc2ccccc2)c(=O)c2c1nc1n2CCCN1C1CCCCC1` was -5.15%; that for `Cc1ccc(-c2nc(CSc3nc4ccccc4c(=O)n3C)cs2)cc1` was 9.52%; that for `COc1ccc(CCNC(=O)C(NS(=O)(=O)c2ccc3c(c2)CCN3C(C)=O)C(C)C)cc1OC` (centres unmarked) was 25.1%.
The value for `C[n+]1ccc(/C=C/c2c[nH]c3ccccc23)cc1.[I-]` was 5.37%; that for `COc1ccc(S(N)(=O)=O)cc1C(=O)NCCCN1CCN(c2ccc(C)cc2)CC1` was -50.7%; that for `CCOC(=O)N1CCN(C(=O)COC(=O)c2ccc(O)cc2O)CC1` was 16.7%.
The value for `COc1ccc(O/C(=N\S(=O)(=O)c2ccccc2)c2ccccc2)cc1` was 2.84%.
For `CCNC(=O)Nn1c(C)nnc1C`, the “hERG current change (%, negative = inhibition) at 10uM” value was 6.41%.
Then `CCc1nnc(NC(=O)CSc2nnc(-c3ccoc3C)n2-c2ccccc2)s1`, with -3.54%; and `COc1ccc(C(=O)NNC(=O)C2(C)CC2(Br)Br)cc1` (centres unmarked), with 10%; and `Cc1n[nH]c(C)c1S(=O)(=O)N1CCC(C(=O)O)CC1.Cl`, with 1.54%.
Then `C=CCn1c(SCC(=O)N2CCc3ccccc3C2)nc2ccccc2c1=O`, with -61.5%.
The value for `C=CCNC(=O)CN(c1cc(Cl)ccc1OC)S(=O)(=O)c1ccc(C)c([N+](=O)[O-])c1` was 3.12%.
As for `COc1cccc(-c2sc3ccc(OC)cc3c2-c2ccc(O)cc2)c1`, the “hERG current change (%, negative = inhibition) at 10uM” value is listed as 15.9%.
In the case of `CCCNS(=O)(=O)c1cc(Br)cc2c1N(C(=O)CC)CC2`, the “hERG current change (%, negative = inhibition) at 10uM” value is -3.88%.
The value for `COc1ccc(/C=N/NC(=O)CN2CCSCC2)cc1C` was -1.96%; that for `O=C1c2cccnc2C(Nc2ccccc2)N1Cc1ccco1` (centres unmarked) was -6.24%.
Consider `COc1ccc(S(=O)(=O)N2CCOC2CNC(=O)C(=O)NCc2ccco2)cc1OC` (centres unmarked), for which the “hERG current change (%, negative = inhibition) at 10uM” value is reported as -3.32%.
